± gives the standard deviation of the averaged measurements. This is one part of the list.

For this assay, the system named is PfAP2-EXP AP2 domain (GST-tagged). Kind of assay: gcPBM binding intensity (ln(normalized median fluorescence intensity)); higher = stronger DNA binding. In short, it runs like this: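 The binding buffer was 1× PBS containing 1% milk, 0.2 mg/ml BSA, 0.5% salmon testes DNA and 0.03% Triton X-100. In it, GST-tagged P. falciparum DNA-binding domains expressed in E. coli were applied for 1 h to an Agilent 4 × 180k array of primer-extended double-stranded 36-bp intergenic genomic probes plus negative controls. Binding intensity, read with Alexa488 anti-GST antibody and a 488 nm scan, is the highest Masliner-normalised natural-log median intensity across replicate spots of either probe orientation.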
As to “ATATTGTTATATGTTTGTACATATTTTTTATATTTT [XGTACX_site6834]”, the “gcPBM binding intensity (ln)” value came out at 8.93 ± 0.91.
The figure for “AAAAAAAAAAAATACACACACACATATAAATATGTA [CACACA_site6900]” is 8.27 ± 0.6; for “GTTTATATATGCTTATAATTTTCAATTGTTTTACAA [TGCATGCA_negctrl_site384]” it is 8.63 ± 0.4.
Turning to “TGTGTGGATATATGTATGCACTACCCTTTGGGTCAT [GTGCAC_site9506]”, the “gcPBM binding intensity (ln)” value is 8.41 ± 0.18.
Consider “ATATATTGAACCTATGCATGTAAAATATATGTAATA [TGCATGCA_site644]”, for which the “gcPBM binding intensity (ln)” value stood at 8.72 ± 0.39.
As for “AAATATTAAATGGAAAACAAATATATATATCTTAAT [XGTACX_negctrl_site383]”, the figure is 8.56 ± 0.38.
Turning to “ATATATATATATAGGAGTACATGAAATACTTAAAAA [XGTACX_site8851]”, the “gcPBM binding intensity (ln)” value worked out at 10 ± 0.21.
Consider “AAAAAAGAAATAATCAAATAAATAAAAAAGATGAAT [XGTACX_negctrl_site607]”, for which the “gcPBM binding intensity (ln)” value was 8.84 ± 0.59.
The figure for “GTGTGAAGATATAAATGCATTTTTTTATACATTTTC [CACACA_negctrl_site117]” is 8.55 ± 0.38; for “TGTAAGTATTCTTGAGGTACACATATAAATATAGTA [XGTACX_site3207]” it is 8.33 ± 0.33; for “AATATTATATAATAAAGTACATATATATTCATATTT [XGTACX_site7204]” it is 8.26 ± 0.28.
For “TATTTATACATACGTACACACAAATATTAAAATATA [CACACA_site7004]”, the “gcPBM binding intensity (ln)” value worked out at 8.69 ± 0.4.
With “TTTTTTTTTTTCTCCATACACACTTGATAAAACTTT [CACACA_site615]”, the “gcPBM binding intensity (ln)” value was found to be 8.67 ± 0.52.
As for “ATTTTTTTTTTTTGTACATACCACATATACAAAACA [CACACA_negctrl_site1240]”, the figure is 8.79 ± 0.35; as for “TAATTGATTCTTCACCGTACTCACACATATATATAT [XGTACX_site6530]”, 9.61 ± 0.14; as for “CACACCACCAACAAAAGTACATACATATATATATAT [XGTACX_site5781]”, 10.2 ± 0.68.
The figure for “TATATATTGCCCTTCACACACACACCCATATATATA [CACACA_site2493]” is 9.06 ± 0.42; for “ATATATTATAAATGTAGTACCGTTACATAGTCATAG [XGTACX_site390]” it is 8.76 ± 0.41; for “ATCAAGCACGAACACACACACACACGCACGCCCACA [CACACA_site6308]” it is 8.85 ± 0.57.
The figure for “ACTACGAGTCGTAGAGTGCAGTCTGGAGAAAAGTAC [GTGCAC_site9769]” is 9.35 ± 0.42; for “TTTTGATTTTTTTATTGTACCCATAAACATATAATT [XGTACX_site5202]” it is 8.69 ± 0.24; for GGTATTTATGGACGCGTGCACACACATATGAACAAA it is 9.02 ± 0.3.
As to “TACAAACAATTAAACAAACACACATATACATGTATA [CACACA_site2061]”, the “gcPBM binding intensity (ln)” value came out at 8.59 ± 0.35.
The figure for “TATTTTTGAAGTTGCACACACAAAAATAAAAAGTAT [CACACA_site418]” is 8.69 ± 0.39; for ATATTTACTCACGTCTTGCACTGAGCAAGCATTATA it is 8.63 ± 0.29; for “TCATGTTTTTAATATTGTACTCTCATTTTATATATC [XGTACX_site8412]” it is 8.64 ± 0.28.
Consider “AGCTATTAATTTATTACATGCAAGATTAAAAGACTA [TGCATGCA_site281]”, for which the “gcPBM binding intensity (ln)” value came to 8.87 ± 0.23.
As for “CTATCAAATAATAGCAAACACACAAAAAATAAAAAA [CACACA_site4147]”, the figure is 8.62 ± 0.45; as for “AAAAAAAAAAAAAAATCACACATTGGTTAAATATTA [CACACA_site5344]”, 8.2 ± 0.43; as for “ATTCATACATGCACACGTACATATTTAAATATAAAA [XGTACX_site8388]”, 8.91 ± 0.38.
The figure for “ATTTTTTATGAAAACATAAAAAAATGAGATAACCAT [CACACA_negctrl_site894]” is 8.53 ± 0.41; for “AAAAAAAAAAGACACACACACACACGGACACATACA [CACACA_site7363]” it is 8.84 ± 0.52.
As for “TATAAATCTATAAATGCACACAAGGGAAGAAAAACG [CACACA_site2965]”, the figure is 9.29 ± 0.42; as for “AAAGAACAAATAAAACATAAAATAATATATATAGAT [CACACA_negctrl_site1764]”, 8.88 ± 0.3; as for “TATTATTCCAAGAAAAAAAAAAATAAAAAAAAAAAA [CACACA_negctrl_site1424]”, 8.23 ± 0.39.
Regarding “CAAACAATTAAACAAACACACATATACAAGTATATA [CACACA_site8639]”, the “gcPBM binding intensity (ln)” value is 8.38 ± 0.36.
As for “ATTAAAATTTGTTAAAGTACTTAATAAAAATTTTTC [XGTACX_site1959]”, the figure is 8.32 ± 0.38.
As for AATGACTACATAATAGTGCAATATTAAAGAAAATTA, the figure is 8.74 ± 0.13; as for “ATTCTTAAAAAAAAATGTACACATGAACAATATGTA [XGTACX_site362]”, 8.43 ± 0.23; as for “TGTATATCATAAGATGGTACACGTGTGTGCGTATGC [XGTACX_site2255]”, 9.06 ± 0.4.
As for “TTTAAGATTTTGTAATGTACATATATACATATATAT [XGTACX_site399]”, the figure is 8.45 ± 0.33.
Regarding “TATATATTATATATGTGTACTCACTAACAAAAATTA [XGTACX_site6285]”, the “gcPBM binding intensity (ln)” value is 8.38 ± 0.38.
The figure for “AGGTGAATATTTTTTACACACATAAAAAAAATATAT [CACACA_site57]” is 8.55 ± 0.45; for “TATATTTTTATAATAACACACGATATATGTTTAGGA [CACACA_site1283]” it is 8.33 ± 0.26.

These data come from the supplement of paper PMC11417369.
